In the supplement of paper PMC9334596:
Values joined by “and” are separate entries in the source; they are usually repeats but may differ in a detail not shown here. Equal entries are not always repeated. In all, about 5,300 compounds were measured (“PER2::LUC luminescence relative to vehicle control”: median about 0.96, highest 2% from about 1.3 on). The list shows a part of the results.

Test system: mPer2Luc MEF
Test: PER2::LUC luminescence relative to vehicle control (fold of vehicle); higher = higher PER2::LUC reporter signal
Details: 10 µM
How it was run: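 In 384-well plates, ~3000 mPer2Luc reporter mouse embryonic fibroblasts per well were cultured in DMEM with 10% FBS at 37 °C and 5% CO2 for 48 h before compounds from commercial libraries were added at 10 μM. ONE-Glo luciferase readings were taken 24 h and 30 h after treatment. Each value is PER2::LUC luminescence given as fold of vehicle control.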

SMILES	PER2::LUC luminescence (time after treatment 24 h)	PER2::LUC luminescence (time after treatment 30 h)
COCCOc1nc(N)c2[nH]c(=O)n(Cc3ccccc3)c2n1	1.21	1.13
O=C(O)/C(=C\c1c(C(=O)O)[nH]c2cc(Cl)cc(Cl)c12)c1ccccc1	1.4	1.34
CN(C)[C@@H]1C(O)=C(C(N)=O)C(=O)[C@@]2(O)C(O)=C3C(=O)c4c(O)ccc(Cl)c4[C@@H](O)[C@H]3C[C@@H]12	0.896	0.852
O=C(O)CC1CC(c2ccccc2)=NO1 (configuration not stated)	0.994 and 1.06	0.948 and 1.15
CCC1(c2c[nH]cn2)Cc2ccccc2C1	0.976	0.993
Cc1ccc2c(c1)C(=O)C1(O)CCN(c3ccccc3)C1=N2 (racemic)	0.897	0.919
O=C(O)c1cc(N(Cc2ccccc2O)Cc2ccccc2O)ccc1O	0.973	1.02
CC(Oc1ccccc1)C(=O)N[C@@H]1C(=O)N2[C@@H]1SC(C)(C)[C@@H]2C(=O)O (some centres not stated)	1.02	0.902
CC(C)NC[C@H](O)c1ccc(O)c(O)c1	1.01	0.859
CC[C@@H]1/C=C(\C)C[C@H](C)C[C@H](OC)[C@H]2O[C@@](O)(C(=O)C(=O)N3CCCC[C@H]3C(=O)O[C@H](/C(C)=C/[C@@H]3CC[C@H](Cl)[C@H](OC)C3)[C@H](C)[C@@H](O)CC1=O)[C@H](C)C[C@@H]2OC	0.753	0.957
COc1ccc(-c2cc(C(F)F)nn2-c2ccc(S(N)(=O)=O)cc2)cc1F	0.823	0.766
Cc1cc(Nc2nc(N[C@@H](C)c3ncc(F)cn3)ncc2Cl)[nH]n1	0.994	1.11
COc1cc(C(=O)O[C@H]2C/C(C)=C/CC/C(C)=C/[C@H](O)[C@@H]2C(C)C)ccc1O	1.15	1.15
O=C(O)c1cc(O)c2ccc(Cl)cc2n1	0.934	0.805
C[C@@H]1CC[C@@]2(OC1)O[C@H]1C[C@H]3[C@@H]4CC[C@@H]5C[C@@H](O)CC[C@]5(C)[C@H]4CC[C@]3(C)[C@H]1[C@@H]2C	1.11	1.01
NCCS(=O)O	0.963	0.933
CCCCC(=O)N(Cc1ccc(-c2ccccc2-c2nnn[nH]2)cc1)[C@H](C(=O)O)C(C)C.CCOC(=O)[C@H](C)C[C@@H](Cc1ccc(-c2ccccc2)cc1)NC(=O)CCC(=O)O	0.991	0.904
OC[C@H]1O[C@@H](O[C@@H]2[C@@H](CO)OC(O)(CO)[C@H]2O)[C@H](O)[C@@H](O)[C@H]1O (mixture of isomers)	1.12	1.37
CC[C@@H](Nc1c(Nc2cccc(C(=O)N(C)C)c2O)c(=O)c1=O)c1ccc(C)o1	0.95	0.961
N[C@@H](C(=O)N[C@@H]1C(=O)N2C(C(=O)O)=C(Cl)CS[C@H]12)c1ccccc1	0.976 and 0.773	0.899 and 0.773
CN1CCC[C@@H]1c1cccnc1.Cc1ccc(C(=O)O[C@H](C(=O)O)[C@@H](OC(=O)c2ccc(C)cc2)C(=O)O)cc1	0.873	0.978

SMILES	PER2::LUC luminescence (time after treatment 24 h)	PER2::LUC luminescence (time after treatment 30 h)
COc1ccc(C(=O)NCc2ccc(OCCN(C)C)cc2)cc1OC	0.512	0.513
C=C1C2CC[C@@]3(C)[C@H](c4ccoc4)OC(=O)C[C@]13O[C@H]1CC(O)C(C)(C)C(CC(=O)OC)[C@@]21C (some centres not stated)	0.892	0.948
C=CC[C@H](N)C(=O)O	1.05	0.937
Brc1ccc([C@H]2CN3CCSC3=N2)cc1	1.11	0.858
COc1ccc(-c2coc3cc(O)ccc3c2=O)cc1S(=O)(=O)O	1	0.898
CCCCCCCCCCC1=C(C)C(=O)C(OC)=C(OC)C1=O	1.02	0.992
CC(=O)O[C@H]1CC[C@]2(C)C3=C(CC[C@H]2C1(C)C)[C@]1(C)CC[C@H]([C@H](C)CCC=C(C)C)[C@@]1(C)CC3	1.11	1.05
Nc1ncnc(Nc2ccc(Cl)cc2)n1	1.04	1.24
O=C(O)c1ccccc1Nc1ccccc1	1.02	0.974
CC[C@H](C)[C@H](N)C1=N[C@H](C(=O)N[C@@H](CC(C)C)C(=O)N[C@H](CCC(=O)[O-])C(=O)N[C@H](C(=O)N[C@H]2CCCCNC(=O)[C@H](CC(N)=O)NC(=O)[C@@H](CC(=O)[O-])NC(=O)[C@H](Cc3cnc[nH]3)NC(=O)[C@@H](Cc3ccccc3)NC(=O)[C@H]([C@@H](C)CC)NC(=O)[C@@H](CCCN)NC2=O)[C@@H](C)CC)CS1.[Zn+2]	0.958 and 1.14	0.998 and 1.01
CO[C@@H](C(=O)N1Cc2[nH]nc(NC(=O)c3ccc(N4CCN(C)CC4)cc3)c2C1)c1ccccc1	0.782 and 0.712 and 0.736	0.697 and 0.714 and 0.674
CN1CCN(C2=Nc3cc(Cl)ccc3Nc3ccccc32)CC1	0.789	0.747
Cc1c(Cc2ccc3ccccc3n2)c2cc(F)ccc2n1CC(=O)O	0.991	0.94
CCCCCCCCCCCCCCCC(=O)NCCO	1.01	0.936 and 0.926
CC(=O)NC[C@H]1CN(c2ccc(N3CCN(C(=O)CO)CC3)c(F)c2)C(=O)O1	0.974	1.02
CC(=O)C1(O)CCC2C3CC(C)C4=CC(=O)C=CC4(C)C3(F)C(O)CC21C (configuration not stated)	0.724	1.1
CCCN(CCc1cccs1)[C@H]1CCc2c(O)cccc2C1	0.913 and 0.869	0.933 and 0.918
CC(=O)[C@H]1CC[C@H]2[C@@H]3CC=C4C[C@@H](OS(=O)(=O)O)CC[C@]4(C)[C@H]3CC[C@]12C	0.955	0.936
CS(=O)(=O)n1cc2c(n1)CN([C@H]1CO[C@H](c3cc(F)ccc3F)[C@@H](N)C1)C2	0.996	0.905
NCC=CC(=O)O (stereo in doubt)	1.03	1.05
CC(C)[C@@H](O)CC[C@@H](C)[C@H]1CC[C@H]2[C@@H]3CC=C4C[C@@H](O)CC[C@]4(C)[C@H]3CC[C@]12C	1.22	0.978

SMILES	PER2::LUC luminescence (time after treatment 24 h)	PER2::LUC luminescence (time after treatment 30 h)
Cc1cc(=O)n(-c2ccccc2)n1C	1.19	1.03
Clc1ccc(COC(Cn2ccnc2)c2ccc(Cl)cc2Cl)c(Cl)c1 (configuration not stated)	1.04 and 0.591	1.29 and 1.01
CC(C)(C)C[C@@H]1N[C@@H](C(=O)N[C@H]2CC[C@H](O)CC2)[C@H](c2cccc(Cl)c2F)[C@]12C(=O)Nc1cc(Cl)ccc12	0.814	0.683
O=C(O)c1cc(O)c2c(c1)[C@@H]([C@H]1c3cc(C(=O)O)cc(O)c3C(=O)c3c(O[C@@H]4O[C@H](CO)[C@@H](O)[C@H](O)[C@H]4O)cccc31)c1cccc(O[C@@H]3O[C@H](CO)[C@@H](O)[C@H](O)[C@H]3O)c1C2=O	0.739	0.72
O=c1c2ccccc2oc2ccccc12	1.07	1.15
CC1(C2CCCC2)Cc2cc(OCC(=O)O)c(Cl)c(Cl)c2C1=O (configuration not stated)	1	0.896
CO[C@H]1O[C@@H]2O[C@@]3(C)CC[C@H]4[C@H](C)CC[C@@H]([C@H]1C)[C@@]24OO3	1.22	1.15
N#C/C(=C\c1ccc(O)c(O)c1)C(=O)c1ccc(O)c(O)c1	0.905	0.841
Cn1ncc(Cl)c1-c1cc(C(=O)N[C@H](CN)Cc2cccc(F)c2)sc1Cl	0.31	0.335
CCOc1ccc2nc(SCCN3CCOCC3)[nH]c2c1	1.06	1.08
NC12CC3CC(CC(C3)C1)C2	0.972	0.812
NCC(=O)O	0.992	0.878
Cc1ccc(-c2ncc(Cl)cc2-c2ccc(S(C)(=O)=O)cc2)cn1	0.814	0.983
OC[C@H]1O[C@@H](c2ccc(F)c(Cc3cc4ccccc4s3)c2)[C@H](O)[C@@H](O)[C@@H]1O	0.941	0.958
CCCc1c(OCCCCc2nnn[nH]2)ccc(C(C)=O)c1O	0.981	0.977
CC1CCc2c(N3CCC(O)CC3)c(F)cc3c(=O)c(C(=O)O)cn1c23 (configuration not stated)	1.01	1.09
COc1cc2c(c(OC)c1OC)-c1c(cc(OC)c(OC)c1OC)CC(C)C(C)C2 (configuration not stated)	0.948	1.09
CC(=O)N(O)CCCCCNC(=O)CCC(=O)N(O)CCCCCNC(=O)CCC(=O)N(O)CCCCCN	0.881	0.921
NC(Cc1cccc(-c2ccccc2CP(=O)(O)O)c1)C(=O)O (configuration not stated)	0.89	0.879
O=S(=O)(c1cccc2cnccc12)N1CCNCC1	1.01	0.998
C=CC(C)(O)CCC1C(=C)CC(O)C2C(C)(C)CCCC12C (configuration not stated)	0.928	0.914

SMILES	PER2::LUC luminescence (time after treatment 24 h)	PER2::LUC luminescence (time after treatment 30 h)
N[C@H](CO)C(=O)O	0.97	0.891
CCN[C@H]1C[C@H](C)S(=O)(=O)c2sc(S(N)(=O)=O)cc21	0.986	0.988
CCNC(=O)CC[C@H](N)C(=O)O	1.03 and 1.08	0.981 and 1.06
C[N+](C)(C)CCCCCNCC12CC3CC(CC(C3)C1)C2	0.905	0.834
C[N+]1(C)CCC[C@H]1C(=O)[O-]	1.05	1.1
CC(C)/N=c1\cc2n(-c3ccc(Cl)cc3)c3ccccc3nc-2cc1Nc1ccc(Cl)cc1	0.807	1.07
O=C1Cc2cc(CCN3CCN(c4nsc5ccccc45)CC3)c(Cl)cc2N1	0.873 and 0.874	0.826 and 0.719
CCCCC1OC(=O)C2=CCCCC21 (configuration not stated)	1.01	0.986
CC(=O)Nc1ccc(NC(=S)NC(=O)c2ccc(C(C)(C)C)cc2)cc1	0.812	0.973
O=C(NOCCO)c1ccc2cncn2c1Nc1ccc(I)cc1F	0.183	0.126
CCOc1cc(C(=O)N2CCC(N3CCN(C)CC3)CC2)ccc1Nc1ncc2c(n1)N(C1CCCC1)c1ccccc1C(=O)N2C	0.067	0.083
CCOC(=O)[C@]12CC1/C(=N\O)c1ccccc1O2 (some centres not stated)	0.949	0.99
O=c1cc(-c2ccc(O)c(O)c2)oc2cc(O)cc(O)c12	1.01	1.1
O=C(Cc1ccc(-c2ccc(OCCN3CCOCC3)cc2)cn1)NCc1ccccc1	0.341	0.546
CN1CC(=O)NC1=N	0.861	1.26
Nc1ncn([C@H]2C[C@H](O)[C@@H](CO)O2)c(=O)n1	0.983 and 0.918 and 0.511	1 and 0.868 and 0.744
CC(C)(C(=O)c1cccnc1)c1cccnc1	1.21	1.06
COC(=O)Nc1ccc(-c2nc(N3CCOCC3)c3cnn(C4CCN(Cc5cccnc5)CC4)c3n2)cc1	0.841	0.77
